Assay results: a collection of fitness landscapes (doi:10.1126/science.1257360)
The other results are listed elsewhere or left out.

B1: PhoQ; a variant is named by its letters at X, in order, P23837 (parent)
chain: MKKLLRLFFPLSLRVRFLLATAAVVLVLSLAYGMVALIGYSVSFDKTTFRLLRGESNLFYTLAKWENNKLHVELPENIDKQSPTMTLIYDENGQLLWAQRDVPWLMKMIQPDWLKSNGFHEIEADVNDTSLLLSGDHSIQQQLQEVREDDDDAEMTHSVAVNVYPATSRMPKLTIVVVDTIPVELKSSYMVWSWFIYVLSANLLLVIPLLWVAAWWSLRPIEALAKEVRELEEHNRELLNPATTRELTSLVRNLNRLLKSERERYDKYRTTLTDLTHSLKTPLXXLQXXLRSLRSEKMSVSDAEPVMLEQISRISQQIGYYLHRASMRGGTLLSRELHPVAPLLDNLTSALNKVYQRKGVNISLDISPEISFVGEQNDFVEVMGNVLDNACKYCLEFVEISARQTDEHLYIVVEDDGPGIPLSKREVIFDRGQRVDTLRPGQGVGLAVAREITEQYEGKIVAGESMLGGARMEVIFGRQHSAPKDE

Variants of: B1
Test: enrichment ratio after two sorts for PhoP signalling (ratio (wild type AVST 3.29)); higher = more functional
Conditions: with PhoP (E. coli)

| Variant | enrichment ratio |
| --- | --- |
| GNWC | ≤ 0.25 |
| SHYQ | ≤ 0.25 |
| VQPY | ≤ 0.25 |
| KPHP | ≤ 0.25 |
| PNTT | ≤ 0.25 |
| RHWM | ≤ 0.25 |
| ENLE | ≤ 0.25 |
| TIRS | 0.31 |
| ACLL | 13.3 |
| RFNN | ≤ 0.25 |
| FANV | ≤ 0.25 |
| DKPC | ≤ 0.25 |
| RTDN | 3.33 |
| RPEL | ≤ 0.25 |
| DKDK | ≤ 0.25 |
| KCGL | ≤ 0.25 |
| DCNP | ≤ 0.25 |
| YQWM | ≤ 0.25 |
| ETIQ | ≤ 0.25 |
| IMGT | ≤ 0.25 |
| PIIC | ≤ 0.25 |
| WWDI | ≤ 0.25 |
| QLTI | 0.476 |
| LHCP | ≤ 0.25 |

| Variant | enrichment ratio |
| --- | --- |
| NTSY | ≤ 0.25 |
| NLAH | ≤ 0.25 |
| DSIT | ≤ 0.25 |
| TYLW | ≤ 0.25 |
| YMFE | ≤ 0.25 |
| SVGH | 6.05 |
| SATY | 12.7 |
| HATY | ≤ 0.25 |
| IAFI | ≤ 0.25 |
| HHGV | ≤ 0.25 |
| DCWH | ≤ 0.25 |
| VCRA | ≤ 0.25 |
| SEIC | 32.9 |
| WYEF | ≤ 0.25 |
| PTRM | ≤ 0.25 |
| FQIW | ≤ 0.25 |
| TVTF | 0.76 |
| FEFG | ≤ 0.25 |
| FMSD | ≤ 0.25 |
| RLYS | ≤ 0.25 |
| NMKQ | ≤ 0.25 |
| PMEH | ≤ 0.25 |
| MQTD | ≤ 0.25 |
| VLNR | ≤ 0.25 |

| Variant | enrichment ratio |
| --- | --- |
| AWLK | ≤ 0.25 |
| KTFN | ≤ 0.25 |
| WQHA | ≤ 0.25 |
| KYLD | ≤ 0.25 |
| EEDT | ≤ 0.25 |
| NMQK | ≤ 0.25 |
| VFYF | ≤ 0.25 |
| EFGQ | ≤ 0.25 |
| RMMC | ≤ 0.25 |
| NGLI | 2.73 |
| QELI | ≤ 0.25 |
| HVSS | ≤ 0.25 |
| WYIR | ≤ 0.25 |
| NRGM | ≤ 0.25 |
| VIYW | ≤ 0.25 |
| WYAM | ≤ 0.25 |
| NTPF | ≤ 0.25 |
| HFKT | ≤ 0.25 |
| LMID | ≤ 0.25 |
| HQWS | ≤ 0.25 |
| AHQS | ≤ 0.25 |
| RWWD | ≤ 0.25 |
| LAKL | ≤ 0.25 |
| LMQA | ≤ 0.25 |

| Variant | enrichment ratio |
| --- | --- |
| EAMY | ≤ 0.25 |
| WEYV | ≤ 0.25 |
| KIYY | ≤ 0.25 |
| IINW | ≤ 0.25 |
| DAGP | ≤ 0.25 |
| GDFM | ≤ 0.25 |
| VAKY | ≤ 0.25 |
| IYFG | ≤ 0.25 |
| NFVL | ≤ 0.25 |
| VVTP | ≤ 0.25 |
| LVLK | ≤ 0.25 |
| TKPV | ≤ 0.25 |
| DTWD | ≤ 0.25 |
| HFGG | ≤ 0.25 |
| YMFH | ≤ 0.25 |
| MQTI | ≤ 0.25 |
| DPDS | ≤ 0.25 |
| REAN | ≤ 0.25 |
| FMNE | ≤ 0.25 |
| DSNQ | ≤ 0.25 |
| VIAH | 6.06 |
| WTEW | ≤ 0.25 |
| QMCA | ≤ 0.25 |
| RWSR | ≤ 0.25 |

| Variant | enrichment ratio |
| --- | --- |
| FGES | ≤ 0.25 |
| HLKF | ≤ 0.25 |
| HKPN | ≤ 0.25 |
| LQTR | 3.24 |
| NAKC | ≤ 0.25 |
| EQIW | ≤ 0.25 |
| IVHT | ≤ 0.25 |
| NDVS | ≤ 0.25 |
| RLTP | ≤ 0.25 |
| CFYS | ≤ 0.25 |
| VHGY | ≤ 0.25 |
| HHAT | ≤ 0.25 |
| AQLP | ≤ 0.25 |
| ETYR | ≤ 0.25 |
| VRAL | ≤ 0.25 |
| SLMV | 7.89 |
| MIQL | ≤ 0.25 |
| HFVR | ≤ 0.25 |
| YDQR | ≤ 0.25 |
| QGTC | 9.68 |
| PEWE | ≤ 0.25 |
| LFEM | ≤ 0.25 |
| ECFA | ≤ 0.25 |
| RSHN | ≤ 0.25 |

| Variant | enrichment ratio |
| --- | --- |
| MYIL | ≤ 0.25 |
| SMRF | ≤ 0.25 |
| FFWA | ≤ 0.25 |
| YVVQ | ≤ 0.25 |
| QQGK | ≤ 0.25 |
| TANW | ≤ 0.25 |
| YCAT | 0.489 |
| NHIP | ≤ 0.25 |
| DSDW | ≤ 0.25 |
| PEDS | ≤ 0.25 |
| GDGL | ≤ 0.25 |
| YIPY | ≤ 0.25 |
| FWAW | ≤ 0.25 |
| QVMC | ≤ 0.25 |
| MPSR | ≤ 0.25 |
| INMC | ≤ 0.25 |
| GQDG | ≤ 0.25 |
| MMRG | ≤ 0.25 |
| FHST | ≤ 0.25 |
| LNTC | ≤ 0.25 |
| HRTQ | ≤ 0.25 |
| TTAD | ≤ 0.25 |
| SDGH | ≤ 0.25 |
| VQKK | ≤ 0.25 |

| Variant | enrichment ratio |
| --- | --- |
| YHPY | ≤ 0.25 |
| EPLY | ≤ 0.25 |
| HGTW | ≤ 0.25 |
| DGQQ | ≤ 0.25 |
| LAKR | ≤ 0.25 |
| NATH | ≤ 0.25 |
| EHKS | ≤ 0.25 |
| FPHN | ≤ 0.25 |
| TYRL | 0.913 |
| DLAF | ≤ 0.25 |
| TVEL | 3.54 |
| YIHF | ≤ 0.25 |
| HPDS | ≤ 0.25 |
| QRHC | ≤ 0.25 |
| YIHH | ≤ 0.25 |
| WWVV | ≤ 0.25 |
| FPRT | 1.3 |
| RACD | ≤ 0.25 |
| MCPR | ≤ 0.25 |
| DPFA | ≤ 0.25 |
| MQEE | ≤ 0.25 |
| NSEH | ≤ 0.25 |
| PVVK | 3.47 |
| NRYV | ≤ 0.25 |

| Variant | enrichment ratio |
| --- | --- |
| PYPW | ≤ 0.25 |
| LRRF | ≤ 0.25 |
| LAEN | ≤ 0.25 |
| FMLI | ≤ 0.25 |
| YDPD | ≤ 0.25 |
| GRDV | ≤ 0.25 |
| ANRC | ≤ 0.25 |
| AYFW | ≤ 0.25 |
| QRWT | ≤ 0.25 |
| ATTM | 16.6 |
| SNDQ | ≤ 0.25 |
| EEYY | ≤ 0.25 |
| TMIQ | ≤ 0.25 |
| ALFP | ≤ 0.25 |
| MQMY | 3.17 |
| SFLF | 1.1 |
| PKLF | ≤ 0.25 |
| RWYG | ≤ 0.25 |
| IQYH | ≤ 0.25 |
| LIID | ≤ 0.25 |
| GQHP | ≤ 0.25 |
| RYAR | ≤ 0.25 |
| LRCI | ≤ 0.25 |
| HKSS | ≤ 0.25 |

| Variant | enrichment ratio |
| --- | --- |
| QTYC | 0.887 |
| AVLE | ≤ 0.25 |
| PFKR | ≤ 0.25 |
| KYPE | ≤ 0.25 |
| QQAI | ≤ 0.25 |
| YYEM | ≤ 0.25 |
| HTPT | ≤ 0.25 |
| YNMC | ≤ 0.25 |
| HLCK | ≤ 0.25 |
| ILCE | ≤ 0.25 |
| VDAG | ≤ 0.25 |
| DCFA | ≤ 0.25 |
| HYQM | ≤ 0.25 |
| FNCY | ≤ 0.25 |
| WMPD | ≤ 0.25 |
| TTFE | ≤ 0.25 |
| TSNM | 3.95 |
| VVYT | ≤ 0.25 |
| VNNM | ≤ 0.25 |
| LSFD | ≤ 0.25 |
| HEPW | ≤ 0.25 |
| KHFI | ≤ 0.25 |
| FYRK | ≤ 0.25 |
| QDTD | ≤ 0.25 |

| Variant | enrichment ratio |
| --- | --- |
| IFLR | ≤ 0.25 |
| LTHW | ≤ 0.25 |
| GCWR | ≤ 0.25 |
| AAFV | ≤ 0.25 |
| DMQF | ≤ 0.25 |
| VLKG | ≤ 0.25 |
| GCCR | ≤ 0.25 |
| YSEQ | ≤ 0.25 |
| FRDL | ≤ 0.25 |
| HSNW | ≤ 0.25 |
| AWIW | ≤ 0.25 |
| MNHR | ≤ 0.25 |
| AMND | ≤ 0.25 |
| RQDI | ≤ 0.25 |
| TTMD | 0.883 |
| TTWS | 11.9 |
| LQGW | ≤ 0.25 |
| YWWR | ≤ 0.25 |
| KKQL | ≤ 0.25 |
| GLGP | ≤ 0.25 |
| WSWR | ≤ 0.25 |
| KKCF | ≤ 0.25 |
| IIFT | ≤ 0.25 |
| RDPD | ≤ 0.25 |

| Variant | enrichment ratio |
| --- | --- |
| KDWA | ≤ 0.25 |
| LTPQ | ≤ 0.25 |
| WEWW | ≤ 0.25 |
| KFAK | ≤ 0.25 |
| HFGS | ≤ 0.25 |
| DYLD | ≤ 0.25 |
| KIAL | ≤ 0.25 |
| EVYM | ≤ 0.25 |
| YFKA | ≤ 0.25 |
| DIAW | ≤ 0.25 |
| HHKV | ≤ 0.25 |
| RTAD | ≤ 0.25 |
| IQIP | ≤ 0.25 |
| NIWT | ≤ 0.25 |
| HGSP | ≤ 0.25 |
| IFLE | ≤ 0.25 |
| TCVP | ≤ 0.25 |
| WARR | ≤ 0.25 |
| HGIR | ≤ 0.25 |
| HATP | ≤ 0.25 |
| DWQC | ≤ 0.25 |
| QGRQ | ≤ 0.25 |
| VLMR | ≤ 0.25 |
| TWVI | ≤ 0.25 |

| Variant | enrichment ratio |
| --- | --- |
| YLLF | ≤ 0.25 |
| KLAK | ≤ 0.25 |
| IMWL | ≤ 0.25 |
| VRSR | ≤ 0.25 |
| GWSR | ≤ 0.25 |
| FFYS | ≤ 0.25 |
| DASR | ≤ 0.25 |
| LHQK | ≤ 0.25 |
| FPCN | ≤ 0.25 |
| CIIL | ≤ 0.25 |
| GFGT | ≤ 0.25 |
| FVIP | ≤ 0.25 |
| DLWE | ≤ 0.25 |
| AMIC | ≤ 0.25 |
| FYMR | ≤ 0.25 |
| TLVS | ≤ 0.25 |
| AHNC | ≤ 0.25 |
| YACS | 0.363 |
| QYCM | ≤ 0.25 |
| KSSC | ≤ 0.25 |
| PVKS | ≤ 0.25 |
| YKTS | ≤ 0.25 |
| MTEI | ≤ 0.25 |
| GEME | ≤ 0.25 |

| Variant | enrichment ratio |
| --- | --- |
| MRCP | ≤ 0.25 |
| VYKH | ≤ 0.25 |
| KKEP | ≤ 0.25 |
| NIYD | ≤ 0.25 |
| KIGK | ≤ 0.25 |
| PVQR | ≤ 0.25 |
| WNSG | ≤ 0.25 |
| VSKA | 0.389 |
| SQLW | 2.64 |
| GSVN | ≤ 0.25 |
| KHNE | ≤ 0.25 |
| MEKC | ≤ 0.25 |
| YAVW | ≤ 0.25 |
| SQCE | 24.1 |
| STDF | ≤ 0.25 |
| RMTG | ≤ 0.25 |
| YAFT | ≤ 0.25 |
| MQWL | ≤ 0.25 |
